Consider 14 molecules from publication PMC12136788.

To fix the notation:
T1: UNK ZnF1-3 (human, UniProt Q9C0B0 31-174)
T1 sequence: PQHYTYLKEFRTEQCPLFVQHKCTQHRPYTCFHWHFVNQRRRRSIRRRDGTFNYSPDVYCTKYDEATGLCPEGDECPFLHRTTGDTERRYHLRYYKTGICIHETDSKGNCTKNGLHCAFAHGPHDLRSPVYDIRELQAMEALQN

B1: chr16:28827448:28827449:-_ENSMUSG00000051065_ENSMUST00000100023|mus_mus|FALSE|FALSE (ssRNA)
RNA: GGGAGUUCUACAGUCCGACGAUCGGACUCUCAGUGAAAACUCGGGAGAAGAACGAGGUCAAAGACAGAACAUCAGCCGAAGAGGAAGAGAAUGUGUUCAAAUAUGCCAGGAGGAGAUGUGUUCCCCCAAACCCACCAACAAAUCAACAGAGGAUUGAGCAUCA
B2: chr17:25053547:25053548:-_ENSMUSG00000024163_ENSMUST00000126280|mus_mus|FALSE|FALSE (ssRNA)
RNA: GGGAGUUCUACAGUCCGACGAUCUGACCUCCAAAUGUAUUGCAAAGAACCCACACUCUUAGCGGUCAUUCCUCACCAUGAGUAGCCACAACUGUUUGGUUAAAACACUACAGUAUAUAAAAACAAAAAACAAAACAAAAAACACAACAGAGGAUUGAGCAUCA
B3: chr9:106791465:106791466:-_ENSMUSG00000032575_ENSMUST00000069036|mus_hu|FALSE|FALSE (ssRNA)
RNA: GGGAGUUCUACAGUCCGACGAUCUUUAGGCAUCAGUUCAUUUAUCUUCCGGAUGUAGUCAGACUUUUCUGCACAGCCUUUGCAUGUCUCCCCCCAGUCAUCCAGAAUCUUCUUCAGCUCUUUAACUCGGAGCUUCUUCAGGUCCAACAGAGGAUUGAGCAUCA
B4: chr4:39739082:39739083:+_ENSG00000078140_ENST00000261427|perfect_dup|FALSE|FALSE (ssRNA)
RNA: GGGAGUUCUACAGUCCGACGAUCUAUUUUUAUCUCUAGUUGAUAUCUUCCACCUUCAUACGGUGUGUCUGGAGGUCCUGCUAUUUCUCCUCUUAAUUCUGUAAAAUUCUCAUCUACAAGAUCUACUUUAAUUUGAUUUUUGCUCAACAGAGGAUUGAGCAUCA
B5: chr11:4127340:4127341:+_ENSG00000167325_ENST00000300738|hu_mus|hu_hu_hu_mus_False|98_98 (ssRNA)
RNA: GGGAGUUCUACAGUCCGACGAUCGGCAUAGUCAGGGUGCUUAGUAGUCAAGGUCGCGGCUGUCUCAGCAGCCAGGGUGUCCAGUUCCACUGUGGUGACCCCACUAUAUAGGCCUUGGAUUACUUUCAUGGUGAUCUGAGCAGGCAACAGAGGAUUGAGCAUCA
B6: 118651850_118656837_489_CDS_ENSG00000110367_ENST00000264018|human|control|control (ssRNA)
RNA: GGGAGUUCUACAGUCCGACGAUCCUUUGGAGGGAGUUUUAAAGUCUUUUUCCAGUCAUCACCAGGUUUAAUAGUGGUGGUCAUACUCUGUGCUUGCUGCUGAGUGCCAUUAUUGAUUGUGUUGGUGUUUUUCAGCUGGUUCAUCAACAGAGGAUUGAGCAUCA
B7: chr12:88041583:88041584:-_ENSMUSG00000021257_ENSMUST00000021682|mus_mus|FALSE|FALSE (ssRNA)
RNA: GGGAGUUCUACAGUCCGACGAUCUUCUGCCGGCUCCAGGGUGCAGUUUAAGUGCCAUUUAAACCCCCACACUUCAUUUCUAAAACAGAAACAAGGAGAAACAAGGAAAAGAUAAACCACCAAGCUCUGACCCUCUGCCUCCUUCAACAGAGGAUUGAGCAUCA
B8: chr2:48782664:48782665:-_ENSMUSG00000026761_ENSMUST00000141441|mus_hu|motif|central (ssRNA)
RNA: GGGAGUUCUACAGUCCGACGAUCCACUCUUUUUUCUAAGAGUUCCAAAAUAUCCAAUCUACAUGUAAGACCAAUAACUGCGGUUGGGGUCUGUGCAGACUGAGAAAUGUCAAAAAGAUUAUAGAGAAGUGUUUGGUUUUUAUGCAACAGAGGAUUGAGCAUCA
B9: 107399791_107399911_2171_3pUTR_ENSG00000105879_ENST00000440859|human|control|control (ssRNA)
RNA: GGGAGUUCUACAGUCCGACGAUCUUUCAAAUUUUUUACAAAUGGUCACCUCUGGGUCAAUUUACUAAACUAGGGGAACAAAGAGAUGUUAAAAUAUAGCUGUGCUCAACUGAGCCACUUAUCUGUACUACAGUAUGGUACUUGCAACAGAGGAUUGAGCAUCA
B10: chr11:108017000:108017001:+_ENSG00000075239_ENST00000265838|hu_mus|FALSE|FALSE (ssRNA)
RNA: GGGAGUUCUACAGUCCGACGAUCAUUUACUUUUUGGGGGUCAAUCUCCAGCAUUUUAAUGUUGGCUAGCACAACCACACUGAAUGCUUCAUUUACUUCCCACAUGGCAAUGUCUUCUUUUUUCAGUCCUGCAUAUUUAAGAACCAACAGAGGAUUGAGCAUCA
B11: chr16:20683585:20683586:+_ENSMUSG00000045983_ENSMUST00000044783|mus_hu|motif|central (ssRNA)
RNA: GGGAGUUCUACAGUCCGACGAUCUAUUGCCUCUGUUAACAUCUUCAGUUUGAACAACUCUCCAAUAAACUUGAUAUUCCCGGAAGAGCGCCGCCGGGCUAUGUCCCGAGCCUCUUCCAGCUCUUCCUUCAGGCGUCCUCGUUCCAACAGAGGAUUGAGCAUCA
B12: chr7:91030085:91030086:-_ENSMUSG00000070462_ENSMUST00000094216|mus_mus|motif|central (ssRNA)
RNA: GGGAGUUCUACAGUCCGACGAUCAAUACUCCAGUACAUGCAGGGUAAAAACUUGACAUUGGGGGGGGGGGGAAAUCACUCGGUAGUGUAAUUUAAAAAAUAAAACACACGCUCACAGUAGCUUUCCCCCCCACUUGCAAAUCACAACAGAGGAUUGAGCAUCA
B13: chr7:140404665:140404666:+_ENSG00000090266_ENST00000247866|hu_hu|hu_hu_hu_mus_False|18_88 (ssRNA)
RNA: GGGAGUUCUACAGUCCGACGAUCUGCUCCUACUCGUCCAGAGAGUUUACACCUUCAGUCCUCGUCAUCAGGAGGGAUUCCCAGUUCUUCAUCUGUCCACUGUGAAGGAUCUGGAUACGGAAAGUGACCCAGCACAGCAUCCGACAACAGAGGAUUGAGCAUCA
B14: chr14:78183846:78183847:+_ENSG00000119705_ENST00000557342|hu_hu|hu_hu_hu_mus_False|38_88 (ssRNA)
RNA: GGGAGUUCUACAGUCCGACGAUCUCUCAGAAAUCUUUCUUCAUCAGCAUCAUCAGAUCCGUGCAAAGCCUUUGCUCUUUGAGCUUGAACGUGGAUCUUUACUCCAUAAAGCACUGUCAGAAAAGGUAAUUUUUUUUUUAAAGACAACAGAGGAUUGAGCAUCA

This is one part of the list.

In this test the target is T1, UNK ZnF1-3. Description: nsRBNS (natural sequence RNA bind-n-seq); RBNS binding buffer (assumed for nsRBNS): 25 mM Tris pH 7.5, 150 mM KCl, 3 mM MgCl2, 0.01% Triton X-100, 500 ug/ml BSA, 20 U/ml SUPERase-In, 4 C; UNK is unkempt and MSI1 is Musashi-1; names of the RNAs are library labels; protein concentration not given here; high values mean tight binding.
In the case of B1, the binding signal was determined as 1.96 enrichment R.
In the case of B2, the binding signal was 1.85 enrichment R.
B3 had a binding signal of 0.725 enrichment R.
The same measure for B4: 0.379 enrichment R; for B5: 0.84 enrichment R; for B6: 0.327 enrichment R.
Molecule B7 returned a binding signal of 1.73 enrichment R.
As for B8, the binding signal came to 1.09 enrichment R.
Regarding B9, the binding signal was 1.46 enrichment R.
In the case of B10, the binding signal was determined as 0.578 enrichment R.
Turning to B11, the binding signal came out at 0.561 enrichment R.
On to B12, for which the binding signal worked out at 0.48 enrichment R.
The molecule B13 displayed a binding signal of 1.33 enrichment R.
As for B14, the binding signal was 1.02 enrichment R.
